# Measured values: paper PMC6212790
# This is one part of the list. At the low end of the ranking, values are background and their order means little.
# Target: T1, GST-Rok (full length) (UniProt O34857)
# T1 sequence: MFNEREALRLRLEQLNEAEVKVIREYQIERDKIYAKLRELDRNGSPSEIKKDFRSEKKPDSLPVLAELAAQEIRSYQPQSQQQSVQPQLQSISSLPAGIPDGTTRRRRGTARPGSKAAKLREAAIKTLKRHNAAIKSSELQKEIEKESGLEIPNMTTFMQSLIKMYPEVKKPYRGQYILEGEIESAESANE
# Experiment: protein binding microarray;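 note: rank score from −0.5 (least bound) to 0.5 (best bound)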
# Conditions: Rok is a gene silencer of Bacillus subtilis; high values mean tight binding; most listed sequences are background and not binding sites; double strand, one strand shown
row,Sequence,binding signal
1,ACCTGTGA,-0.144 E-score
2,GGAATACA,-0.00371 E-score
3,GATATCGA,0.265 E-score
4,CAGGTATC,-0.173 E-score
5,ATCTCCCC,-0.211 E-score
6,AATTCAAG,0.0633 E-score
7,CACTGGAC,-0.168 E-score
8,AATACTCG,0.085 E-score
9,AATTTCAG,0.105 E-score
10,AATAAGCC,-0.0305 E-score
11,ACTACAAT,0.344 E-score
12,AAGATATC,0.208 E-score
13,ATCGTCGG,-0.0275 E-score
14,AGACAGCC,-0.117 E-score
15,AAGGGTTG,-0.192 E-score
16,CCGATGCG,-0.217 E-score
17,CTTAACTA,0.313 E-score
18,CATATTCA,-0.0382 E-score
19,CACAAGGG,-0.425 E-score
20,GGGCATCA,-0.161 E-score
21,CCCAAAAC,-0.147 E-score
22,TCACAACA,-0.157 E-score
23,TCGTGTCA,-0.278 E-score
24,TATATAGA,0.404 E-score
25,CCTTCTCA,-0.273 E-score

row,Sequence,binding signal
1,CCATACCC,-0.291 E-score
2,AAGACCTC,-0.306 E-score
3,CGCTAACA,0.116 E-score
4,ATGGTAAG,0.205 E-score
5,AGTAGCAT,0.291 E-score
6,AACGATGT,0.0657 E-score
7,CCAAATAG,-0.0889 E-score
8,AGATTCTA,0.282 E-score
9,CGAGTCCG,-0.0283 E-score
10,AATTAACA,0.0704 E-score
11,GCCTCCAA,-0.236 E-score
12,CACATCGA,0.0672 E-score
13,CCCCTCCA,-0.389 E-score
14,ACAACGGC,-0.0679 E-score
15,GTGTGCGA,-0.187 E-score
16,CGTACCGC,-0.291 E-score
17,GATCCTCC,-0.262 E-score
18,CTTAACAA,0.111 E-score
19,AAACTAGG,0.252 E-score
20,AGTTCCTC,-0.0871 E-score
21,CACACTTA,0.11 E-score
22,GTCCCGGA,-0.141 E-score
23,GCGCTACC,0.0207 E-score
24,AAGAGGGG,-0.472 E-score
25,GTAAGCAC,-0.0551 E-score

row,Sequence,binding signal
1,CTGGCGTC,-0.267 E-score
2,CTGGTTCC,-0.187 E-score
3,AACGTTTC,-0.0207 E-score
4,ATGTCCCA,-0.24 E-score
5,GAATTTGC,0.0837 E-score
6,AAATCGGG,-0.117 E-score
7,GCGGGGAA,-0.25 E-score
8,AGGTCACG,-0.0554 E-score
9,AATTACCG,0.32 E-score
10,CATATGTC,-0.0495 E-score
11,CTCTGTGC,-0.0787 E-score
12,AAGGGACC,-0.35 E-score
13,AGGACAAC,-0.00864 E-score
14,ACGACATG,0.136 E-score
15,AGCCACTC,-0.241 E-score
16,CCCAGGTC,-0.406 E-score
17,CCTACACG,0.094 E-score
18,CGTGCCAA,-0.162 E-score
19,CCTGAGGA,-0.243 E-score
20,ACGCGGCA,-0.129 E-score
21,AATACGGA,0.0922 E-score
22,TAAGATTA,0.22 E-score
23,GCTTCTTA,0.0708 E-score
24,ATACATTC,0.259 E-score
25,CAAGTTGC,-0.00109 E-score

row,Sequence,binding signal
1,ACAAGGCG,-0.168 E-score
2,AACGGTTG,0.0856 E-score
3,GTCTTCCA,-0.135 E-score
4,GTGATCAC,-0.16 E-score
5,GATCAGCC,-0.259 E-score
6,ACCGTGTC,0.104 E-score
7,AAGTTTAG,0.22 E-score
8,GACACGAC,-0.0441 E-score
9,GATTCACA,0.0605 E-score
10,CAGACTTA,-0.0703 E-score
11,AACGGTCA,-0.228 E-score
12,GCGTATAA,0.249 E-score
13,AAACGAAA,0.064 E-score
14,CGTTGAAA,0.00463 E-score
15,AGTACAGG,0.06 E-score
16,AGTTATGG,0.209 E-score
17,CTTGTACC,0.0552 E-score
18,AGAGGCCA,-0.17 E-score
19,GCCGCAAC,-0.231 E-score
20,ACGTTTCA,-0.143 E-score
21,GCAACGCA,-0.126 E-score
22,ACAGTTCT,0.204 E-score
23,CTGGGGAC,-0.289 E-score
24,CCCAGTAA,-0.137 E-score
25,GCAATGGC,-0.288 E-score

row,Sequence,binding signal
1,CAGAACGG,-0.0464 E-score
2,TCAAAGCA,0.154 E-score
3,CTCCCACA,-0.0653 E-score
4,CAAAAATG,-0.0399 E-score
5,AATCAGGA,-0.0153 E-score
6,TCGGCGCA,-0.264 E-score
7,CGGGAGAA,-0.0902 E-score
8,ACGAAGCC,-0.16 E-score
9,ACATTGCC,-0.0325 E-score
10,AGCAACGA,-0.0987 E-score
11,CTCCGGTC,-0.181 E-score
12,AACGTGCC,-0.144 E-score
13,GTGTCTTA,-0.0198 E-score
14,ACCCATCC,-0.0647 E-score
15,TGTCGGAA,-0.177 E-score
16,ACATTCCT,-0.00444 E-score
17,CGTTTGCC,-0.104 E-score
18,CAGAACAA,-0.0915 E-score
19,AGCTACCG,0.309 E-score
20,TACGGCAA,0.138 E-score
21,ATCTGATA,0.237 E-score
22,AGCACTAT,0.0981 E-score
23,GCTATCCA,0.0426 E-score
24,AAACTGTG,-0.00412 E-score
25,ACTATTAC,0.407 E-score

row,Sequence,binding signal
1,ATCTTAAC,0.199 E-score
2,ATCCCTCA,-0.24 E-score
3,AGCACTGG,-0.246 E-score
4,CCCTGCAC,-0.37 E-score
5,AGCGCGGG,-0.274 E-score
6,CACCGTCA,-0.143 E-score
7,GCCGTCCA,-0.24 E-score
8,TGCTCCAA,-0.193 E-score
9,GCATCTCA,-0.0845 E-score
10,AGTCGATC,-0.0567 E-score
11,CCTCGACG,-0.138 E-score
12,GTCAGCAC,-0.165 E-score
13,AGCGATGG,-0.0613 E-score
14,ACTAGCTG,0.179 E-score
15,AATTCTAG,0.321 E-score
16,CAAAGCAC,-0.0461 E-score
17,ACAGTTAA,0.109 E-score
18,AGAATAAT,0.227 E-score
19,AGCCTACC,-0.0411 E-score
20,GTGCATCA,0.0778 E-score
21,CCGCACAC,-0.19 E-score
22,AAGATGAG,0.0577 E-score
23,CAACTCCA,-0.0874 E-score
24,ACCAATGG,0.0184 E-score
25,ACTTCAAC,0.077 E-score

row,Sequence,binding signal
1,GATCTGGA,-0.114 E-score
2,GGGAAACC,-0.209 E-score
3,AGGTAACG,-0.0854 E-score
4,CCACGACG,-0.0637 E-score
5,AGTAAGCA,0.0894 E-score
6,CTAAATGA,0.193 E-score
7,GTAAACGA,-0.0497 E-score
8,GACCAAGC,-0.0833 E-score
9,CGTGATCA,0.00654 E-score
10,ATGCTTTA,-0.0817 E-score
11,ATGGTCAC,-0.0409 E-score
12,AGACATTG,0.0664 E-score
13,AAGATCCA,-0.126 E-score
14,ATTATTCC,0.222 E-score
15,AATCCACC,-0.178 E-score
16,AGGCGACA,-0.0777 E-score
17,GGAACATA,0.00433 E-score
18,GCCGGTGA,-0.0673 E-score
19,CCGCCCCG,-0.491 E-score
20,CGGCCATC,-0.304 E-score
21,AAATTCAC,0.202 E-score
22,GTAATATA,0.391 E-score
23,GCTAGAAC,0.209 E-score
24,CCGGATCG,-0.156 E-score
25,GGATGAAC,0.0639 E-score

row,Sequence,binding signal
1,CGGTTAGA,-0.0152 E-score
2,CATGGAAA,-0.033 E-score
3,ATGGTTGA,0.0308 E-score
4,CACGCCGC,-0.284 E-score
5,AGTATGGA,0.097 E-score
6,ACTAGATA,0.402 E-score
7,CCCGAGCC,-0.374 E-score
8,CCCAACGA,-0.282 E-score
9,CCCATGGG,-0.229 E-score
10,CTACGTCC,0.149 E-score
11,GCAGGCTA,-0.279 E-score
12,CACAGGAG,-0.196 E-score
13,TAATTAAA,0.259 E-score
14,GAACTAAC,0.216 E-score
15,AGCTTCAC,-0.0162 E-score
16,TGAGGACA,-0.062 E-score
17,CGTACTAA,0.217 E-score
18,CATCGCAC,0.0143 E-score
19,CGGTACAG,0.0499 E-score
20,CATAAGTC,-0.1 E-score
21,GACGCAAC,0.231 E-score
22,GTCGCAAA,-0.0931 E-score
23,GAATACGC,0.167 E-score
24,ATCGCGTG,-0.0961 E-score
25,AGACCATA,0.114 E-score

row,Sequence,binding signal
1,CATTATCG,0.148 E-score
2,CGGTCTAG,-0.0138 E-score
3,CCTTAAGA,-0.0361 E-score
4,AGCTTGCG,-0.164 E-score
5,AAGTTCAG,0.0854 E-score
6,CTAGAGGA,-0.0599 E-score
7,ACGCTACA,0.113 E-score
8,TGATTACA,0.139 E-score
9,ACCTCGCC,-0.179 E-score
10,ACGCTGAC,-0.0558 E-score
11,TCTACAAA,0.255 E-score
12,ATGAGTTG,-0.0707 E-score
13,GATCCTGC,-0.187 E-score
14,GGTTCTTA,-0.136 E-score
15,ACACGACA,-0.0272 E-score
16,CCACCGGA,-0.0835 E-score
17,AATGCCCT,-0.062 E-score
18,GCTCGGCC,-0.342 E-score
19,CTATGCCC,-0.283 E-score
